Test results reported in the supplement of paper PMC6089552.
The whole screen tested about 3,200 compounds, of which about 300 (9.4%) showed activity. This is a selection; strong and weak results do not stand in their true shares.

System: A673/TR/shEF
Test: cell viability (LOESS-normalised, relative to median of negative controls) (log2 ratio); higher = more viable cells (less compound effect), active = hit call of the paper (over 3 MAD below the median)
Conditions: treatment time: 72 h
Summary of the method: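 A673/TR/shEF Ewing sarcoma cells were plated at 1,500 per well in 384-well plates and cultured with or without doxycycline, added 24 h before compounds, to induce EWS-FLI1 shRNA knockdown. Library compounds at two or more concentrations, alongside DMSO controls, were applied for three days. Cell viability was measured by CellTiter-Glo luminescence on an Envision reader. Readings were LOESS-corrected per plate, divided by the median of negative controls and log2-transformed, and hits were wells lying at least three median absolute deviations from the median of all screened wells.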

[1] = 0.25 µM, library screen: screen2, EWS-FLI1 expression: high (no doxycycline)
[2] = 0.25 µM, library screen: screen2, EWS-FLI1 expression: low (doxycycline-induced shRNA knockdown)
[3] = 2.5 µM, library screen: screen2, EWS-FLI1 expression: high (no doxycycline)
[4] = 2.5 µM, library screen: screen2, EWS-FLI1 expression: low (doxycycline-induced shRNA knockdown)
[5] = 0.025 µM, library screen: screen2, EWS-FLI1 expression: high (no doxycycline)
[6] = 0.025 µM, library screen: screen2, EWS-FLI1 expression: low (doxycycline-induced shRNA knockdown)
[7] = 0.25 µM, library screen: screen1, EWS-FLI1 expression: high (no doxycycline)
[8] = 0.25 µM, library screen: screen1, EWS-FLI1 expression: low (doxycycline-induced shRNA knockdown)
[9] = 2.5 µM, library screen: screen1, EWS-FLI1 expression: high (no doxycycline)
[10] = 2.5 µM, library screen: screen1, EWS-FLI1 expression: low (doxycycline-induced shRNA knockdown)
[11] = 25 µM, library screen: screen2, EWS-FLI1 expression: high (no doxycycline)
[12] = 25 µM, library screen: screen2, EWS-FLI1 expression: low (doxycycline-induced shRNA knockdown)

Measured: cell viability (log2)

CCCN1CCC[C@@H]2Cc3nc(N)ncc3C[C@H]21
inactive: [1] 0.0767 | [2] 0.0848 | [3] 0.147 | [4] 0.0159

C=C[C@H]1CN2CC[C@H]1C[C@@H]2[C@@H](O)c1ccnc2ccccc12
inactive: [5] -0.0178 | [6] 0.065 | [7] 0.0563 | [8] 0.00789 | [1] 0.0544 | [2] 0.025 | [9] 0.109 | [10] 0.0808 | [3] 0.0996 | [4] 0.113 | [11] 0.109 | [12] 0.0339

Cn1cnc(CCN)c1
inactive: [1] 0.106 | [2] 0.0803 | [3] 0.187 | [4] 0.116

C1CCc2nnnn2CC1
inactive: [7] 0.121 | [8] 0.103 | [1] 0.186 | [2] 0.0782 | [9] 0.152 | [10] 0.165 | [3] 0.149 | [4] 0.0712

OC[C@@H]1CCCN2CCCC[C@H]12
inactive: [7] 0.107 | [8] 0.116 | [9] 0.168 | [10] 0.165

O=C1C=CC(=O)c2c(O)cccc21
active: [11] -0.0924 | [12] -0.0926
inactive: [5] 0.123 | [6] 0.0947 | [7] 0.185 | [8] 0.0663 | [1] 0.0843 | [2] 0.00401 | [9] 0.153 | [10] 0.0956 | [3] 0.273 | [4] 0.125

COC[C@H]1OC(=O)c2coc3c2[C@@]1(C)C1=C(C3=O)[C@@H]2CCC(=O)[C@@]2(C)C[C@H]1OC(C)=O
inactive: 0.025 µM, library screen: screen1, EWS-FLI1 expression: high (no doxycycline) 0.254 | 0.025 µM, library screen: screen1, EWS-FLI1 expression: low (doxycycline-induced shRNA knockdown) 0.0235 | [7] 0.137 | [8] -0.0412 | [1] 0.179 | [2] 0.0105 | [10] -0.0837 | [3] -0.0237 | [4] 0.0148
active: [9] -0.356 | 25 µM, library screen: screen1, EWS-FLI1 expression: high (no doxycycline) -0.711 | 25 µM, library screen: screen1, EWS-FLI1 expression: low (doxycycline-induced shRNA knockdown) -0.309

CC(=O)O[C@H]1CC[C@]2(C=O)C3CC[C@]4(C)[C@@H](C5=CC(=O)OC5)CC[C@]4(O)C3CC[C@]2(O)C1 (stereo partly drawn)
inactive: [7] 0.0163 | [8] -0.145
active: [9] -1.12 | [10] -1.15

CNNC
inactive: [5] 0.186 | [6] 0.0401 | [7] 0.136 | [8] 0.152 | [1] 0.206 | [2] 0.035 | [9] 0.115 | [10] 0.131 | [3] 0.112 | [4] 0.0817 | [11] 0.239 | [12] 0.143

CC[C@@H]1/C=C/C=C/C[C@H](C)[C@@H](O)[C@](C)(O)C(=O)[C@H](C)[C@@H](O)[C@H](C)C(=O)[C@H](C)[C@@H](O)[C@H](C)/C=C/C(=O)O[C@H]2[C@@H](C)[C@@H](CC1)O[C@@]1(CC[C@@H](C)[C@@H](C[C@H](C)O)O1)[C@@H]2C
active: [1] -0.731 | [2] -0.205 | [3] -0.713 | [4] -0.154

Oc1cc2c(cc1O)[C@H]1c3ccccc3CN[C@@H]1CC2
inactive: [1] 0.0852 | [2] -0.0099 | [3] 0.117 | [4] 0.00998

Clc1cnc(Oc2ccc(Oc3ncc(Cl)cc3Cl)cc2)c(Cl)c1
inactive: [1] 0.042 | [2] 0.0675 | [3] 0.18 | [4] 0.102

CNCCc1ccc(O)c(O)c1
inactive: [1] 0.188 | [2] 0.11 | [3] 0.188 | [4] 0.0767

CC1=NCCc2c1[nH]c1cc(O)ccc21
inactive: [7] 0.0932 | [8] -0.00297 | [9] 0.128 | [10] -0.00118

C=C[C@H]1CN2CC[C@H]1C[C@H]2[C@H](O)c1ccnc2ccccc12
inactive: [7] 0.0661 | [8] 0.0434 | [9] 0.171 | [10] 0.109

C[C@H]1O[C@@H](O[C@H]2[C@@H](O)C[C@H](O[C@H]3[C@@H](O)C[C@H](O[C@H]4CC[C@@]5(C)[C@H](CC[C@@H]6[C@@H]5CC[C@]5(C)[C@@H](C7=CC(=O)OC7)[C@@H](O)C[C@]65O)C4)O[C@@H]3C)O[C@@H]2C)C[C@H](O)[C@@H]1O
active: [7] -0.13 | [8] -0.332 | [9] -1.73 | [10] -1.76

COc1ccc2c(c1)[C@]13CCCC[C@@H]1[C@H](C2)N(C)CC3
inactive: [7] 0.155 | [8] 0.126 | [1] 0.0495 | [2] 0.122 | [9] 0.201 | [10] 0.203 | [3] 0.0672 | [4] 0.0213
